This is one part of the list.
tested on: T1, C. trachomatis L2/434/Bu expressing GFP (CTL2-GFP); parameters: species or system HeLa; C. trachomatis total inclusion area by high-content imaging, normalised to DMSO; settings: total inclusion area; 28.5 h, 10 µM; inhibitor
T1 construct: L2/434/Bu GFP intracellular growth in HeLa cells
In short: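 Bulk GFP and resorufin signals were read first. Wells were then fixed, stained with Hoechst and imaged to detect GFP inclusions and host nuclei. MICs followed the previously described calculation.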

| Structure (SMILES) | % of control remaining |
| --- | --- |
| CCCSc1nc2cc(C(=O)OC)ccc2c(=O)n1CC1CCCO1 (centres unmarked) [CBK306031] | 59.6907 |
| Cc1cnc(NC(=O)C(C)Oc2ccccc2)s1 (centres unmarked) [CBK288250] | 102.684 |
| Clc1cc(Nc2ccc3[nH]ccc3c2)n2nccc2n1 [CBK037009] | 68.8516 |
| CC(=O)Nc1cccc(NC(=S)Nc2ccc(S(N)(=O)=O)cc2)c1 [CBK267091] | 91.4312 |
| CN(C)S(=O)(=O)N1CCN(c2ccc([N+](=O)[O-])c(NCCc3ccccc3)c2)CC1 [CBK266498] | 115.405 |
| COc1cccc(C2CC(=O)Nc3n[nH]cc32)c1OC (centres unmarked) [CBK287889] | 105.132 |
| CN1CCN(C2CC(=O)N(c3ccc(Oc4ccccc4)cc3)C2=O)CC1 (centres unmarked) [CBK265434] | 101.014 |
| O=[N+]([O-])c1ccc(S(=O)(=O)Nc2nnc(C3CCCCC3)s2)cc1 [CBK200049] | 121.296 |
| CC(=O)N1CCc2c(c3cccc(Br)c3n2Cc2ccccc2)C1 [CBK024402] | 102.25 |
| c1cnc(-c2ccoc2)c(NCCCN2CCOCC2)n1 [CBK036631] | 98.7755 |
| Cc1nn(C)c(C)c1-c1ccnc(NCCC2(O)CCN(C)CC2)n1 [CBK307659] | 58.9031 |
| CCCCn1c(=O)c(C(=O)Nc2ccccc2S(N)(=O)=O)c(O)c2ccccc21 [CBK262260] | 94.9755 |
| Cc1ccc(OCC(=O)Nc2ccc3c(c2)C(=O)Nc2ccccc2O3)cc1 [CBK287660] | 122.45 |
| CSc1ccc(-n2ncc(-c3ccc(Cl)cc3)n2)cc1 [CBK112782] | 73.0475 |
| O=C(Nc1cc2cccnc2c(Br)n1)Nc1ccc(F)cc1C(F)(F)F [CBK063287] | 106.311 |
| CNC(=O)c1c(NC(=O)c2nc(SCc3ccccc3)ncc2Cl)sc2c1CCCC2 [CBK269087] | 122.621 |
| O=C(Nc1ccccc1)c1ccc(S(=O)(=O)N2CCC(C(=O)O)CC2)cc1 [CBK267806] | 111.273 |
| CN(C)C(=O)C1(c2ccccc2)CCNC1 (centres unmarked) [CBK023394C] | 68.9542 |
| CC(C)(C)NC(=O)CSc1nnc(Cc2cccc3ccccc23)n1-c1ccccc1 [CBK266039] | 106.757 |
| C=C(Br)Cn1c(COc2cccc3ccccc23)nc2ccccc21 [CBK263373] | 80.1393 |
| O=C(CN1CCOCC1)Nc1ccc(Br)cc1[N+](=O)[O-] [CBK267314] | 90.3282 |
| CC(=O)N1CCN(CCNc2ncnc3sc4c(c23)CCC(C)C4)CC1 (centres unmarked) [CBK304897] | 111.362 |
| COc1cc(CN2CCN(c3cc(C)ccc3C)CC2)ccc1OCc1ccccc1 [CBK261898] | 96.5154 |
| COCC(=O)N1CCN(C(=O)N2CCOCC2)C[C@@H]1C(=O)OC [CBK289613] | 101.723 |
| COc1ccccc1OCC(=O)N1CCC(Cn2cncn2)(C2CCCCC2)CC1 [CBK136797] | 97.417 |
| Cc1c(S(=O)(=O)Nc2nnc(C(F)(F)F)s2)sc2ccc(Cl)cc12 [CBK062018] | 105.954 |
| CCc1nc2c(N3CCC(n4nc(C)cc4C)C3)ncnc2o1 (centres unmarked) [CBK306785] | 22.7247 |

| Structure (SMILES) | % of control remaining |
| --- | --- |
| CN1CCN(C(=O)c2cccc(-n3cccn3)c2)C(c2ccccc2)C1 (centres unmarked) [CBK282013] | 105.02 |
| O=C(Nc1cccc(Cl)c1)N1CCCC(c2nc(-c3ccccc3)c3ccccn23)C1 (centres unmarked) [CBK047233] | 100.401 |
| O=C1NCCc2c1[nH]c1c(Cl)cccc21 [CBK015762] | 87.1886 |
| O=C(CCn1c(-c2ccccc2)c(-c2ccccc2)c2ccccc21)N/N=C/c1ccccc1O [CBK262353] | 11.3679 |
| CCC1CN(C(C)=O)CCC1NCc1ccc(OCC(N)=O)cc1 (centres unmarked) [CBK305168] | 52.7919 |
| O=S(=O)(c1ccc(Cl)cc1)c1ccc2ccnc(N3CCCNCC3)c2c1 [CBK036416C] | 103.115 |
| CC(C)CN(C)CC(=O)NC1(c2ccccc2)CCC1 [CBK067455T] | 117.401 |
| COc1ccc(CN2C(=O)CO[C@H]3CN(C(=O)COc4ccccc4)C[C@H]32)cc1 [CBK289262] | 91.3475 |
| Cc1ccc(-c2nnc(CN3C(=O)C4(CC(=O)N(Cc5ccccc5)C4=O)c4ccccc43)o2)cc1 (centres unmarked) [CBK075749] | 93.8187 |
| Nc1ncc(Br)nc1N[C@@H](CO)c1ccccc1 [CBK074321] | 89.5871 |
| CCn1c2cc(C)sc2c2cnn(CC(=O)NC3CC3)c(=O)c21 [CBK284170] | 89.2025 |
| CCCN1CC(NS(=O)(=O)c2cc(-n3cccn3)ccc2C)CC1=O (centres unmarked) [CBK306835] | 80.766 |
| OC12CCCCC1CN(CC1=Cc3ccccc3OC1)CC2 (centres unmarked) [CBK282954] | 75.3299 |
| O=C1CN(Cc2ccc(Cl)cc2)CCO1 [CBK023036C] | 37.0832 |
| COC(=O)c1c(NC(=S)NCc2cccnc2)sc(C)c1C [CBK267029] | 107.784 |
| CSCCCNC(=O)N1CCN(Cc2ccccc2)CC1 [CBK155623] | 82.7176 |
| FC(F)(F)c1cccc(NC(=S)Nc2ccc(Cc3ccncc3)cc2)c1 [CBK267251] | 107.551 |
| NC(=O)Nn1c(CCC(=O)O)ccc1-c1cccs1 [CBK266019] | 107.218 |
| O=C(N/N=C/c1cccc(OC(=O)c2cccc(Br)c2)c1)c1ccncc1 [CBK262249] | 78.217 |
| Cc1ccc([N+](=O)[O-])cc1NC1OC(C(O)CO)C(O)C1O (centres unmarked) [CBK262031] | 116.356 |
| CCOc1cccc(-c2cncc(N3CCN(c4ccccn4)CC3)n2)c1 [CBK065985] | 81.7824 |
| Cc1nc(NS(=O)(=O)c2c(C)noc2C)sc1C(=O)N1CCOCC1 [CBK050574] | 106.883 |
| Cc1ccc(C(=O)NCCN2CCOCC2)c(N2CCN(C(=O)c3ccco3)CC2)n1 [CBK076312] | 58.1041 |
| Cc1ccccc1NC(=O)Cc1nnc(SCC(=O)c2ccccc2)n1C [CBK269719] | 65.289 |
| Oc1cccc(OCCOc2nc3ccccc3nc2N2CCCC2)c1 [CBK115901] | 96.7669 |
| CCn1cc(C(=O)N2CCc3sccc3C2)c(=O)c2ccc(C)nc21 [CBK305006] | 26.5535 |
| Cc1ccc2oc(-c3cccc(NC(=O)c4ccccc4C(=O)O)c3)nc2c1 [CBK300481] | 94.8033 |

| Structure (SMILES) | % of control remaining |
| --- | --- |
| CCSc1nc(-c2ccncc2)ccc1C#N [CBK288539] | 65.0157 |
| NC(=O)c1cccc(-c2nccnc2N2CCN(CCO)CC2)c1 [CBK036726] | 99.3528 |
| CCN(CC)C(=O)C1CCCN(C(=O)NC2CCc3ccccc32)C1 (centres unmarked) [CBK156156] | 103.631 |
| CN(C)CCN(C)C(=O)c1ccc(-c2cccc(Cl)c2Cl)nc1N(C)C [CBK106082] | 92.7724 |
| COCCNc1cc(-c2ccc(Cl)cc2)ncn1 [CBK090797] | 65.8643 |
| CN(C)CCNC(=O)Cc1csc(-c2ccc(Cl)cc2)n1 [CBK107299] | 68.6693 |
| CSc1ccc(-c2nccnc2OCCN(C(C)C)C(C)C)cc1 [CBK106805] | 85.2425 |
| O=C([C@@H]1Cc2c([nH]c3ccccc23)C2(CCN(Cc3ccccc3)C2)N1)N1CCOCC1 (some centres unmarked) [CBK059363T] | 97.7105 |
| O=C(C[C@@H]1O[C@H](CNCc2cccc(Cl)c2)[C@@H](O)[C@H]1O)N1CCc2ccccc21 [CBK288918] | 90.6354 |
| c1ccc(-c2cc(CC3(NCC4CCCCC4)COC3)no2)nc1 [CBK289644] | 106.948 |
| CCN(CC)C(=O)N1CCC(c2cccnc2)CC1 [CBK283535] | 96.8095 |
| NC(=O)c1c(NC(=O)c2cnn3cccnc23)sc2c1CCCC2 [CBK268437] | 124.186 |
| Cc1ccc(C(=O)NCCc2ccc(S(N)(=O)=O)cc2)c(N2CCN(C(=O)c3ccco3)CC2)n1 [CBK076345] | 103.77 |
| CCN(CC)c1ccc(NC(=O)N(CCCN2CCOCC2)Cc2ccc(OC)c(OC)c2)cc1 [CBK159168] | 91.7642 |
| O=C(NCc1ccccc1)c1cccc(NC(=O)c2cc(-c3ccncc3)nc3ccc(Cl)cc23)c1 [CBK267769] | 83.253 |
| NS(=O)(=O)c1ccc(S(=O)(=O)N2CCN(C/C=C/c3ccccc3)CC2)cc1 [CBK266723C] | 113.013 |
| CNC(=O)c1cccc(NC(=O)C(C)N(C)Cc2cnc(C)s2)c1 (centres unmarked) [CBK305735] | 67.3522 |
| Nc1ncc(-c2ccccc2CO)nc1Nc1ccc2[nH]ccc2c1 [CBK063843] | 93.6764 |
| COc1cc(/C=N/n2cnnc2)ccc1OCCOc1ccc(C(C)(C)C)cc1 [CBK263762] | 86.062 |
| c1ccc2c(OCCOCCN3CCCCC3)cccc2c1 [CBK262000] | 91.0122 |
| Nc1ncnc(Nc2cc(C(F)(F)F)cc(C(F)(F)F)c2)n1 [CBK006617] | 94.9263 |
| CCN(C(=O)C(C)N(C)Cc1c(C)nn(C2CCS(=O)(=O)C2)c1C)c1cccc2ccccc12 (centres unmarked) [CBK295206] | 107.399 |
| CCC(CC)C(=O)N1CCCC(c2cc3cccnc3[nH]2)C1 (centres unmarked) [CBK284926] | 83.7929 |
| NC(=O)CSc1nnc(COc2cccc(Cl)c2)n1-c1ccccc1 [CBK267685] | 91.3434 |
| CCCOc1nccnc1N1CCNCC1 [CBK001839G] | 48.1995 |
| Cc1nn(C)cc1-c1cncn1Cc1ccccc1CN(C)C [CBK281985] | 73.105 |
